The text below walks through data of PMC11009252.

Assay [1] addresses GST-EGFR-Carboxyl terminal (CT) wild type fusion protein (aa 1022-1186) (UniProt P00533). Briefly: pull-down; purified GST or GST fusion proteins on beads incubated with 1 mL HEK293 cell lysate, 4 °C, 3 h; washes in 10 mM HEPES, 50 mM NaCl, 5 mM EDTA, 0.1% Tween 20; western blot; only the target purified. For orientation: Immunoblotting shows a protein as a band on a membrane.
Assay [2] deals with GST-EGFR-CT-mutant (MT, L1042/1063 mutated to F) fusion protein (UniProt P00533). The assay is described as above.
The target in assay [3] is EGFR, endogenous in MDA-MB-231 cells (human (endogenous in MDA-MB-231)) (UniProt P00533). Briefly: co-IP; endogenous proteins of MDA-MB-231 cells; anti-EGFR antibody (Fig. 1F) or anti-PDZK1 antibody (Fig. 1G) coupled to affinity gel; IgG as control.
Assay [4] deals with Myc-EGFR (UniProt P00533). Kind of assay: co-IP; MDA-MB-231 cells stably overexpressing Myc-EGFR, co-transfected with PDZK1-WT or PDZK1-MT_S2,3.
Assay [5] concerns the target Myc-EGFR (UniProt P00533). Kind of assay: co-IP; MDA-MB-231 cells transfected with PDZK1-Flag and Myc-EGFR; anti-Myc antibody coupled to affinity gel.
In assay [6] the target is Myc-c-Cbl (UniProt P22681). Briefly: co-IP; MDA-MB-231 cells stably overexpressing c-Cbl, transfected with PDZK1-WT, PDZK1-MT_S1, PDZK1-MT_S1,4 or PDZK1-MT_S2,3.

No constants are given. Whether binding was seen depends on the method and setting. In cells and extracts the contact can be indirect. Some results given as binding are weak or reduced against the parent protein; the word gives no strength. For part of these data: Tags and fused reporters may be left off the sequences shown.

B1: PDZ domain containing 1 (PDZK1), in lysates of HEK293 cells (protein, UniProt Q5T2W1 1-519)
chain: MTSTFNPRECKLSKQEGQNYGFFLRIEKDTEGHLVRVVEKCSPAEKAGLQDGDRVLRINGVFVDKEEHMQVVDLVRKSGNSVTLLVLDGDSYEKAVKTRVDLKELGQSQKEQGLSDNILSPVMNGGVQTWTQPRLCYLVKEGGSYGFSLKTVQGKKGVYMTDITPQGVAMRAGVLADDHLIEVNGENVEDASHEEVVEKVKKSGSRVMFLLVDKETDKRHVEQKIQFKRETASLKLLPHQPRIVEMKKGSNGYGFYLRAGSEQKGQIIKDIDSGSPAEEAGLKNNDLVVAVNGESVETLDHDSVVEMIRKGGDQTSLLVVDKETDNMYRLAHFSPFLYYQSQELPNGSVKEAPAPTPTSLEVSSPPDTTEEVDHKPKLCRLAKGENGYGFHLNAIRGLPGSFIKEVQKGGPADLAGLEDEDVIIEVNGVNVLDEPYEKVVDRIQSSGKNVTLLVCGKKAYDYFQAKKIPIVSSLADPLDTPPDSKEGIVVESNHDSHMAKERAHSTASHSSSNSEDTEM
Take B1: the figures for the binding result in assay [1] and in assay [2] were “binds” and “no binding”, respectively.

B2: PDZK1, endogenous in MDA-MB-231 cells (protein, UniProt Q5T2W1 1-519)
chain: MTSTFNPRECKLSKQEGQNYGFFLRIEKDTEGHLVRVVEKCSPAEKAGLQDGDRVLRINGVFVDKEEHMQVVDLVRKSGNSVTLLVLDGDSYEKAVKTRVDLKELGQSQKEQGLSDNILSPVMNGGVQTWTQPRLCYLVKEGGSYGFSLKTVQGKKGVYMTDITPQGVAMRAGVLADDHLIEVNGENVEDASHEEVVEKVKKSGSRVMFLLVDKETDKRHVEQKIQFKRETASLKLLPHQPRIVEMKKGSNGYGFYLRAGSEQKGQIIKDIDSGSPAEEAGLKNNDLVVAVNGESVETLDHDSVVEMIRKGGDQTSLLVVDKETDNMYRLAHFSPFLYYQSQELPNGSVKEAPAPTPTSLEVSSPPDTTEEVDHKPKLCRLAKGENGYGFHLNAIRGLPGSFIKEVQKGGPADLAGLEDEDVIIEVNGVNVLDEPYEKVVDRIQSSGKNVTLLVCGKKAYDYFQAKKIPIVSSLADPLDTPPDSKEGIVVESNHDSHMAKERAHSTASHSSSNSEDTEM
With B2, the binding entry in assay [3] was “binds”.

B3: PDZK1-Flag (PDZK1-WT) (protein, UniProt Q5T2W1 1-519)
chain: MTSTFNPRECKLSKQEGQNYGFFLRIEKDTEGHLVRVVEKCSPAEKAGLQDGDRVLRINGVFVDKEEHMQVVDLVRKSGNSVTLLVLDGDSYEKAVKTRVDLKELGQSQKEQGLSDNILSPVMNGGVQTWTQPRLCYLVKEGGSYGFSLKTVQGKKGVYMTDITPQGVAMRAGVLADDHLIEVNGENVEDASHEEVVEKVKKSGSRVMFLLVDKETDKRHVEQKIQFKRETASLKLLPHQPRIVEMKKGSNGYGFYLRAGSEQKGQIIKDIDSGSPAEEAGLKNNDLVVAVNGESVETLDHDSVVEMIRKGGDQTSLLVVDKETDNMYRLAHFSPFLYYQSQELPNGSVKEAPAPTPTSLEVSSPPDTTEEVDHKPKLCRLAKGENGYGFHLNAIRGLPGSFIKEVQKGGPADLAGLEDEDVIIEVNGVNVLDEPYEKVVDRIQSSGKNVTLLVCGKKAYDYFQAKKIPIVSSLADPLDTPPDSKEGIVVESNHDSHMAKERAHSTASHSSSNSEDTEM
In the case of B3, the binding entry in assay [4], in assay [5] and in assay [6] was “binds” in each case.
